Experimental data: the supplement of paper PMC8728848
The list shows a part of the results.

Experiments:
Test in all cases: glycan array binding signal (z-score within array); higher = stronger binding
Settings in all cases: glycan notation: IUPAC condensed, linker removed; mutation: E227A
[1] = biological target: GalNAc(b1-4)GlcNAc
How it was run: (§1)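 Columns mapping to the same glycan were averaged after glycan names were converted to IUPAC-condensed notation. The data come from 3228 arrays in the Consortium for Functional Glycomics database, limited to those with an available protein sequence. Binding is reported as a within-array Z-score averaged across arrays of one protein sequence and across linkers.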

[2] = biological target: GalNAc(b1-4)GlcNAc(b1-2)Man
How it was run: as §1

[3] = biological target: GalNAc(b1-4)GlcNAc(b1-2)Man(a1-3)[GalNAc(b1-4)GlcNAc(b1-2)Man(a1-6)]Man(b1-4)GlcNAc(b1-4)GlcNAc
How it was run: as §1

[4] = biological target: GalNAc(b1-4)GlcNAc(b1-3)GalNAc(b1-4)GlcNAc
How it was run: as §1

[5] = biological target: GalNAc(b1-4)GlcNAc6S
How it was run: as §1

[6] = biological target: GalNAc(b1-6)GalNAc
How it was run: as §1

[7] = biological target: GalNAc3S(b1-4)GlcNAc
How it was run: as §1

[8] = biological target: GalNAc3S(b1-4)GlcNAc3S
How it was run: as §1

[9] = biological target: GalNAc3S(b1-4)[Fuc(a1-3)]GlcNAc
How it was run: as §1

[10] = biological target: GalNAc4S6S(b1-4)GlcNAc
How it was run: as §1

[11] = biological target: GalNAc6S(b1-4)GlcNAc
How it was run: as §1

[12] = biological target: Glc(a1-4)Glc
How it was run: as §1

[13] = biological target: Glc(a1-4)Glc(a1-4)Glc(a1-4)Glc
How it was run: as §1

[14] = biological target: Glc(a1-6)Glc(a1-6)Glc
How it was run: as §1

[15] = biological target: Glc(a1-6)Glc(a1-6)Glc(a1-6)Glc
How it was run: as §1

[16] = biological target: Glc(b1-4)Glc
How it was run: as §1

[17] = biological target: Glc(b1-6)Glc
How it was run: as §1

[18] = biological target: GlcA(b1-3)Gal
How it was run: as §1

[19] = biological target: GlcA(b1-3)GlcNAc
How it was run: as §1

[20] = biological target: GlcA(b1-6)Gal
How it was run: as §1

[21] = biological target: GlcA3S(b1-3)Gal(b1-4)GlcNAc(b1-2)Man
How it was run: as §1

[22] = biological target: GlcA3S(b1-3)Gal(b1-4)GlcNAc(b1-3)Gal(b1-4)Glc
How it was run: as §1

[23] = biological target: GlcNAc(a1-3)Gal(b1-4)GlcNAc
How it was run: as §1

[24] = biological target: GlcNAc(a1-4)Gal(b1-3)GlcNAc
How it was run: as §1

[25] = biological target: GlcNAc(a1-4)Gal(b1-4)GalNAc
How it was run: as §1

[26] = biological target: GlcNAc(a1-4)Gal(b1-4)GlcNAc
How it was run: as §1

[27] = biological target: GlcNAc(a1-4)Gal(b1-4)GlcNAc(b1-3)Gal(b1-4)Glc
How it was run: as §1

[28] = biological target: GlcNAc(a1-4)Gal(b1-4)GlcNAc(b1-3)Gal(b1-4)GlcNAc
How it was run: as §1

[29] = biological target: GlcNAc(a1-4)Gal(b1-4)GlcNAc(b1-3)Gal(b1-4)GlcNAc(b1-3)Gal(b1-4)GlcNAc
How it was run: as §1

[30] = biological target: GlcNAc(a1-4)Gal(b1-4)GlcNAc(b1-3)Gal(b1-4)[Fuc(a1-3)]GlcNAc(b1-3)Gal(b1-4)[Fuc(a1-3)]GlcNAc
How it was run: as §1

B1: Epa1-NP-mutant-E227A (Candida glabrata), Q6VBJ0 (protein)
chain: MILNPALFLNKCVCIYTTLILLLLTNGGYATSSNDISLASKDPTTFPLGCSPDITTPKKGLSMELYSYDFRKKGSYPCWDAAYLDPNYPRTGYKSHRLLAKVDGVTGNINFYYHATKGCTPQLGHLPASYNYPKPLTMTNFTMLLYGYFRPKVTGFHTFTISADDLLFVNFGAGNAFDCCRRDSSADHFGNYQAYAIWGSKTAKDELTVHLDAGVYYPIRLFYNNRAYDGALSFTFKTESNENTVSDFSEYFFSLDDTEEGCPGLISYDSSCASVKTSKIIGIDYHTETPNENLVPITKTIYHLGIPCTGTTTTPLCGSGFYDPLANKCVTINTSSTSSVTKTTSHTTSKEVSFHSSISSQKTLIPKSIPSPYGPIKSQSIPTEMETSSEISSSEYAFSDVISTPSHSPYTKKHSSLNSSSYTSTVIHSLTSYSISQGIFSTSLSEQNITSKSSTDKFSTATSMSNNITQSSIIISQFSTNNENYTTTSMHTSSDKISTETLNNSISTTTSILFSNSSTILKNNTTIISSDKDTHYHPVNPTIVCSTNKTEIICASITQPSISNSNNHWSSSVLKFNSTTVRSTLPSSAGSNETSINVPFSSSTESNTSTSSTSTSNSKMVRSTLPSSAGSNETSISVPFSSSTESNTSTSSTSTSNSKMVRSTLPSSAGSNETSINVPFSSSTESNTSTSSTSTSNSKTVRSTPFSSAGIIMTSLSQRNNKSASSYASSNSKCYNTADSCRKVHSTPSYLLTSSYTSEGVDYDCSLVSTKLKINDTNCVNNKHTTKSCLKTSVTTTIPTLEIKTARKSSSNTIGLHSYPTSSPNKSISSAPIIGYISSFKTIKTASPSYQTSDLTTITTITSLNNPGSTAVENTHESNDKSRKTSSNDISSKHSVIKETKDAVESSNKSHQTNTLKCSSIIIASSSHNSYESLGGTTLTLTLSKVYSPQNNDTLPFLEISEVNPSRTVLPESSKMMQYLTSTEERNKTARNTIATNIVSISTFHFEGEGNAIRMGYTQLLLMLIGIIVMNIGT
With B1 the “glycan array binding signal (z-score)” value [1] was -0.201, the “glycan array binding signal (z-score)” value [2] was -0.185 and the “glycan array binding signal (z-score)” value [3] was -0.201. For the same binder, the “glycan array binding signal (z-score)” value [4] was -0.18, the “glycan array binding signal (z-score)” value [5] was -0.184 and the “glycan array binding signal (z-score)” value [6] was -0.216. For the same binder, the “glycan array binding signal (z-score)” value [7] was -0.193, the “glycan array binding signal (z-score)” value [8] was -0.177 and the “glycan array binding signal (z-score)” value [9] was -0.197. For the same binder, the “glycan array binding signal (z-score)” value [10] was -0.197, the “glycan array binding signal (z-score)” value [11] was -0.199 and the “glycan array binding signal (z-score)” value [12] was -0.197. The “glycan array binding signal (z-score)” value [13] was -0.173, the “glycan array binding signal (z-score)” value [14] was -0.201 and the “glycan array binding signal (z-score)” value [15] was -0.197. For the same binder, the “glycan array binding signal (z-score)” value [16] was -0.192, the “glycan array binding signal (z-score)” value [17] was -0.197 and the “glycan array binding signal (z-score)” value [18] was -0.191. For the same binder, the “glycan array binding signal (z-score)” value [19] was -0.196, the “glycan array binding signal (z-score)” value [20] was 0.587 and the “glycan array binding signal (z-score)” value [21] was -0.203. The “glycan array binding signal (z-score)” value [22] was -0.218, the “glycan array binding signal (z-score)” value [23] was -0.198 and the “glycan array binding signal (z-score)” value [24] was -0.184. The “glycan array binding signal (z-score)” value [25] was -0.211, the “glycan array binding signal (z-score)” value [26] was -0.198 and the “glycan array binding signal (z-score)” value [27] was -0.194. For the same binder, the “glycan array binding signal (z-score)” value [28] was -0.195, the “glycan array binding signal (z-score)” value [29] was -0.192 and the “glycan array binding signal (z-score)” value [30] was -0.146.
